# Data reported in the supplement of paper PMC3334620.
# Over roughly 33,000 sequences, “E-score (-0.5 to 0.5)” has its median near -0.041; the highest 2% begin near 0.37. The list shows a part of the results.
# Target: T1, Ecm22 (UniProt Q05958)
# T1 sequence: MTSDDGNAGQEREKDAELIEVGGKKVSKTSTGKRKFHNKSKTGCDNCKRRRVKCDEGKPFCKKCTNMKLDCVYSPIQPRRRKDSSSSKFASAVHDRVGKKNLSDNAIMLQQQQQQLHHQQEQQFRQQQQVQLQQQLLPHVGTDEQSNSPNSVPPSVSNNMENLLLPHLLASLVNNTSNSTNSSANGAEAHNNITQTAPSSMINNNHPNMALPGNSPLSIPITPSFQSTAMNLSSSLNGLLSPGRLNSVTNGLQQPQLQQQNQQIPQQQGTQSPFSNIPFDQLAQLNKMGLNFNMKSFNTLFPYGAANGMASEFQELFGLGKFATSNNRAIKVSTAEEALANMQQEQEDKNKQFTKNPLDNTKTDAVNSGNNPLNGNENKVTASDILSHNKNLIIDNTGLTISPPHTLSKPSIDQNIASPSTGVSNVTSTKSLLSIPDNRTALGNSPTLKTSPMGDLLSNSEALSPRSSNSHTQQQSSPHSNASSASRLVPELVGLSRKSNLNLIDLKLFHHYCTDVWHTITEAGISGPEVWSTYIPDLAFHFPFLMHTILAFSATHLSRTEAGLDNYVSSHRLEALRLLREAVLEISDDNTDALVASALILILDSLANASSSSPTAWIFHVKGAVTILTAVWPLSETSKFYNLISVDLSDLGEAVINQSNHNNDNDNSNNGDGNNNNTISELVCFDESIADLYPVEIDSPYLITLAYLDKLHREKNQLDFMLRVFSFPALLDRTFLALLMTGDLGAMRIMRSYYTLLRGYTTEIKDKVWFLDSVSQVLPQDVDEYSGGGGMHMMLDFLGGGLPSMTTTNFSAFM
# Assay: PBM E-score (8-mer binding enrichment) (E-score (-0.5 to 0.5)); higher = stronger / more preferred TF binding; most listed sequences are background and not binding sites
# Details: protein concentration: 200 nM; construct: GST-full length
# In short: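 Yeast transcription factors carrying a GST tag, as full-length proteins or DNA-binding domains, were produced by PURExpress in vitro transcription/translation. About 100-200 nM protein was applied to universal all-10-mer Agilent arrays, double-stranded by primer extension on fresh or once-stripped slides. Bound protein was detected with fluorescent anti-GST, and scans were normalised with masliner. The Universal PBM Analysis Suite gave each ungapped eight-base word, pooled with its reverse complement, an E-score, a modified Wilcoxon-Mann-Whitney statistic.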
row,Sequence,PBM E-score
1,CACAAACC,-0.308
2,CTCAGGAC,-0.221
3,ATTCAGTG,-0.116
4,AGACTATC,-0.0846
5,AGGCGTGC,-0.0547
6,TAGGGAGA,-0.252
7,AGCGCACG,0.097
8,ACAGTAGG,0.0971
9,ATCGCGCA,-0.00295
10,GAACACAA,0.205
11,GCCTCTCC,-0.22
12,AATATTAG,0.17
13,GTCATCAC,-0.135
14,ATGCTGAA,-0.219
15,AAGCCATC,-0.023
16,ATTAGTTA,-0.0061
17,CAGCCGAC,-0.0956
18,TCCTTAGA,-0.202
19,AGACCTGA,-0.243
20,CACGTCCA,-0.172
21,TGATATAA,-0.0663
22,ATCCCCTG,-0.0196
23,ACTACAGA,0.166
24,ACTGCTTG,-0.206
25,AAAACGAG,0.362

row,Sequence,PBM E-score
1,CGTCAGTA,-0.0604
2,GAGGGAGC,-0.152
3,CCGGCGAG,0.0706
4,AGGTTTAA,-0.15
5,GAGCTACC,-0.158
6,CCAATAAG,-0.213
7,GCTGTGCC,-0.145
8,TGCCCGAA,0.0113
9,GAGAAGCC,-0.0701
10,ACGCCTTA,0.0674
11,GAAGTCGC,0.108
12,CCACGGAA,0.0499
13,GTATCCGA,0.309
14,CTTCATAA,-0.0866
15,CCACTAGG,-0.424
16,AATACCGC,0.00652
17,ACTTCCAT,0.0956
18,GGGTCCTA,-0.218
19,CATTGACC,0.0205
20,ATTTTCCA,-0.0726
21,CGACAACA,0.234
22,GGTCGCAC,0.228
23,CGATTACC,0.159
24,AGGCTAAG,-0.244
25,TCAGAGAA,-0.153

row,Sequence,PBM E-score
1,CTTCGCTA,0.178
2,AGACAAAT,-0.122
3,ACCGTATC,0.346
4,CATATAAG,0.0284
5,AACACAGG,-0.235
6,AGAGGATG,-0.0754
7,ACCTCACG,-0.188
8,GGTATCGA,0.107
9,CTAATGCC,-0.0353
10,CGTGAACC,-0.0188
11,AGTTCGAA,0.118
12,CTTCGGTA,0.0827
13,GCCTCTTA,0.0893
14,CTCTCAAC,-0.0965
15,CACTGACC,0.0493
16,GTAACAAA,0.157
17,GAGTGGGC,-0.039
18,AATTCTGC,0.00795
19,AAGCGGCG,0.135
20,TACATCAA,-0.142
21,AGATTTGG,-0.0939
22,CCGACTCG,0.183
23,CACAACCA,-0.032
24,AAGTATCC,0.026
25,AACTGTAG,-0.171

row,Sequence,PBM E-score
1,CGGACACG,0.189
2,AAATACAA,0.136
3,CGGGGGTC,-0.124
4,CACTTCGC,0.0491
5,GCCTGTAC,0.157
6,CCGGCTCG,0.179
7,CGACGAGA,0.08
8,CATGAAAA,0.00915
9,GGGAACCC,0.0178
10,CTATGTTC,-0.0416
11,ATGGGGCC,-0.398
12,AACAGAGA,-0.168
13,CAATGAAG,0.0367
14,AATAGTAT,0.0635
15,CCATCAAC,0.0649
16,GCCAGCGA,-0.13
17,AATAAGTC,-0.235
18,AGACCACT,-0.136
19,AACTTATT,0.0204
20,AACGGTTA,0.27
21,ACACTAGC,-0.124
22,ATTTAGCA,-0.0835
23,TAGCAGAA,-0.0438
24,AGGATGAG,-0.0765
25,TTCGAAAA,0.0735

row,Sequence,PBM E-score
1,ACGTGGAA,0.0168
2,AGGGAGAC,-0.102
3,CCTCTGGC,-0.116
4,ATACTCCC,-0.0754
5,AAGTAGTA,0.00915
6,CGCGAATC,0.161
7,ACCAAGAA,-0.0381
8,GTGCTACA,-0.309
9,CTTGGCCC,-0.231
10,GGATCCCC,-0.0315
11,CATCTGCA,-0.0833
12,GTTGCCCA,0.109
13,AGCTTGTG,-0.241
14,AACTCATC,-0.0804
15,GGGCTAAC,-0.248
16,CGGCGTGC,-0.188
17,GTAATCCA,-0.0841
18,AACGGAAG,0.187
19,CCGTTCAA,0.3
20,AGAATCAA,0.0427
21,ACTCCATG,-0.0728
22,CCGAAACC,0.00822
23,CACGCTAG,-0.168
24,AACACTGA,-0.059
25,GCAGAGCC,0.0795

row,Sequence,PBM E-score
1,CTATTGCC,-0.0904
2,AAAGCGCC,-0.0107
3,CGTTCCTA,0.439
4,AGATAATA,0.0537
5,AAATGAAT,-0.205
6,AAACGTGG,0.133
7,AGAGAAAT,0.0515
8,GAGGTGCA,-0.157
9,CGACTATA,0.205
10,CTATCCAC,-0.00901
11,ACACACGA,0.2
12,AGCCCTAA,-0.169
13,ACTGGATC,-0.0609
14,CAGATCAG,-0.143
15,CGCCACTC,-0.016
16,ATACTGCA,0.0221
17,AGATCCCC,-0.171
18,CCTAATCA,-0.118
19,AGGATAGA,-0.199
20,CTTATATC,-0.0977
21,CTCTTAAA,-0.0204
22,AGTCTCGG,0.24
23,ATGGCATA,0.149
24,AGCCCATG,-0.267
25,ATGTCCCC,-0.186

row,Sequence,PBM E-score
1,AGTCCCCC,-0.313
2,AGAAGAAT,-0.119
3,CACTCACC,-0.256
4,AAGGCTCT,-0.255
5,ATTACTTC,-0.0783
6,CCTTTGGA,-0.169
7,ATTTAAAC,0.163
8,CTCCTTAA,-0.221
9,GGCTGGAC,-0.199
10,AGTCACTG,-0.137
11,ATATGTCG,0.251
12,ACGAACTC,0.353
13,TAACCTTA,-0.209
14,CGTGTTCA,0.0358
15,GGTGGTGA,-0.1
16,AATATACA,0.104
17,ACGCTAAT,0.0368
18,ACAGTGCT,0.068
19,ATCTCAAT,0.029
20,CAGGACGG,-0.0607
21,CGCTCGCC,0.12
22,CTCCGCGA,0.0322
